Read-outs that look alike come from different tables or passages of the source. Not every detail of the peptide structures is certain; ends, links or a residue may be inferred. At least one structure is not confirmed: it was looked up by name or label, or the drawing left a doubt. *1 amine or outer side, *2 acyl side, *3 side chain or, on linkers, in order; H or OH if unused. Where a SMILES comes first, the peptide text is derived from it. Bridges are numbered along the chain shown (N, C = ends). Roman numbers before positions name the chains, in order. Where no end group is shown, it is not given here. Side-chain parts run from the residue outwards. [ ]: non-standard residue; d: D form. The star is where a group is joined. X2 = CCCCCCCCCCCCCCCC(=O)N[C@@H](CCC(=O)N[C@@H](CSSC[C@H](NC(=O)CC[C@H](NC(=O)CCCCCCCCCCCCCCC)C(=O)O)C(=O)[*:2])C(=O)[*:1])C(=O)O; X4 = CCCCCCCCCCCCCCCC(=O)N[C@@H](CCC(=O)N[C@@H](CCCCNC(=O)CC[C@H](NC(=O)CCCCCCCCCCC)C(=O)O)C(=O)*)C(=O)O; X7 = CCCCCCCCCCCCCCCC(=O)N[C@@H](CCC(=O)N[C@@H](CSCC(=O)NC[C@H](N)C(=O)[*:1])C(=O)[*:2])C(=O)O; γGlu = O=C(O)[C@H](CCC(=O)[*:2])N[*:1]; Palmitoyl = CCCCCCCCCCCCCCCC(=O)*; Aib = CC(C)(N)C(=O)O
Experiments:
Type in all cases: cell-based
GLP-1 receptor = target: T1, GLP-1 receptor (Homo sapiens, UniProt P43220); assay: cAMP induction, firefly luciferase reporter assay in HEK293 cells co-transfected with GLP-1 receptor
T1 construct: expressed in transfected cells; host or cells: HEK293
T1 sequence (P43220 24-463): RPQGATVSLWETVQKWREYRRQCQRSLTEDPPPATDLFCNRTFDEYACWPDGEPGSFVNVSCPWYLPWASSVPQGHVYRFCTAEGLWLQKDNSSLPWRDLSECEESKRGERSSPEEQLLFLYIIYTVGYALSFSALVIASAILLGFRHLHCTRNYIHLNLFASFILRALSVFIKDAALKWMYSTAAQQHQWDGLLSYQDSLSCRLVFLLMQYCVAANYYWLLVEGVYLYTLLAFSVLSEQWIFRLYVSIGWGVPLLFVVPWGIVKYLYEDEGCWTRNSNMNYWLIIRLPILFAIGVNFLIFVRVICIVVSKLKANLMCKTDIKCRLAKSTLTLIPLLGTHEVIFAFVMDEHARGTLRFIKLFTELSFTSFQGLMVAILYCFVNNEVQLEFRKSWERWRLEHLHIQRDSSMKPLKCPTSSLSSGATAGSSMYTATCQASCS
From the text: (§1) This example describes an exemplary method of testing the biological activity of the peptides of the present disclosures, which method involves assaying cAMP synthesis.

glucagon receptor = target: T2, glucagon receptor (Homo sapiens, UniProt P47871); assay: cAMP induction, firefly luciferase reporter assay in HEK293 cells co-transfected with glucagon receptor
T2 construct: expressed in transfected cells; host or cells: HEK293
T2 sequence (P47871 26-477): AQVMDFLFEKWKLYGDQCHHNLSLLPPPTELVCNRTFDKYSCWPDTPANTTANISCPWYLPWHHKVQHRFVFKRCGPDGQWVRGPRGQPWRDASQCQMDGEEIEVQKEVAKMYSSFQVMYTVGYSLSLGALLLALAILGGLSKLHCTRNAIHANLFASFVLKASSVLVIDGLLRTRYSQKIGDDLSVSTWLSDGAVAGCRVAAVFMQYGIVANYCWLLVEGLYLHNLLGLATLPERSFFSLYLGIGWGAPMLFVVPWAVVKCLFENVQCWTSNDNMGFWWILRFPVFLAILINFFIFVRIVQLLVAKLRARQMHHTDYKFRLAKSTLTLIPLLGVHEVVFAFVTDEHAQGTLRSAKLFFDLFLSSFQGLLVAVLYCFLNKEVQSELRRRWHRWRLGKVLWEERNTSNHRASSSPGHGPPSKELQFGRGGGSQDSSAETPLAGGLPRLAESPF
From the text: as §1

GIP receptor = target: T3, GIP receptor (Homo sapiens, UniProt P48546); assay: cAMP induction, firefly luciferase reporter assay in HEK293 cells co-transfected with GIP receptor
T3 sequence (P48546 22-466): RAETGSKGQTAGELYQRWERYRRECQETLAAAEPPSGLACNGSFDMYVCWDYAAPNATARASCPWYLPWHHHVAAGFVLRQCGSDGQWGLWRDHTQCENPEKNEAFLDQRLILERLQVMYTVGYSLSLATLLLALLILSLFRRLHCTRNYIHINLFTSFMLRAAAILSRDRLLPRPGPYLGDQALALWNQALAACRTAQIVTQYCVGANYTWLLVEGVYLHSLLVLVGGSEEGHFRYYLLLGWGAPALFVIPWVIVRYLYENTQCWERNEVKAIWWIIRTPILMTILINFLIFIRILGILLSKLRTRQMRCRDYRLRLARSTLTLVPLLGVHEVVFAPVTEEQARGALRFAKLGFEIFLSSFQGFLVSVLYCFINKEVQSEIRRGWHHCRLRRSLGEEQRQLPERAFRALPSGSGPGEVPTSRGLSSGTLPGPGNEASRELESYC

[1] = read-out: GLP-1 Receptor EC50, Table 14, Example 22
[2] = read-out: Glucagon Receptor EC50, Table 14, Example 22
[3] = read-out: GIP Receptor EC50, Table 14, Example 22

CCCCCCCCCCCCCCCC(=O)N[C@@H](CCC(=O)NCCCC[C@H](NC(=O)[C@H](Cc1ccc(O)cc1)NC(=O)[C@H](CCCCN)NC(=O)[C@H](CO)NC(=O)[C@H](Cc1ccc(O)cc1)NC(=O)[C@H](CC(=O)O)NC(=O)[C@H](CO)NC(=O)[C@@H](NC(=O)[C@H](Cc1ccccc1)NC(=O)[C@@H](NC(=O)CNC(=O)[C@H](CCC(N)=O)NC(=O)C(C)(C)NC(=O)[C@@H](N)Cc1c[nH]cn1)[C@@H](C)O)[C@@H](C)O)C(=O)N[C@@H](CC(=O)O)C(=O)N[C@@H](CCC(=O)O)C(=O)N[C@@H](CCCNC(=N)N)C(=O)N[C@@H](C)C(=O)N[C@@H](C)C(=O)N[C@@H](CCC(N)=O)C(=O)N[C@@H](CC(=O)O)C(=O)N[C@@H](Cc1ccccc1)C(=O)N[C@H](C(=O)N[C@@H](CCC(N)=O)C(=O)N[C@@H](Cc1c[nH]c2ccccc12)C(=O)N[C@@H](CC(C)C)C(=O)N[C@@H](CC(C)C)C(=O)N[C@@H](CC(=O)O)C(=O)NCC(=O)NCC(=O)N1CCC[C@H]1C(=O)N[C@@H](CO)C(=O)N[C@@H](CO)C(=O)NCC(=O)N[C@@H](C)C(=O)N1CCC[C@H]1C(=O)N1CCC[C@H]1C(=O)N1CCC[C@H]1C(=O)N[C@@H](CO)C(N)=O)C(C)C)C(=O)O [SEQ ID NO: 152] (H-H[Aib]QGTFTSDYSKYK([γGlu-Palmitoyl])DERAAQDFVQWLLDGGPSSGAPPPS-NH2)
EC50 (GLP-1 receptor; read-out: GLP-1 Receptor EC50, Table 10, Example 16): 0.004 nM
EC50 (glucagon receptor; read-out: Glucagon Receptor EC50, Table 10, Example 16): 0.004 nM
EC50 (GIP receptor; Table 10, Example 16, read-out: GIP-1 Receptor EC50): 0.011 nM

H[Aib]QGTFTSDYSKYLDERAAQDFVQWLLDGGPSSGAPPPSK(X4)G-NH2 [SEQ ID NO: 211]
EC50 (GLP-1 receptor; read-out: EC50 (nM) at GLP-1 receptor, Table 16, Example 24): 0.006 nM
EC50 (glucagon receptor; read-out: EC50 (nM) at glucagon receptor, Table 16, Example 24): 0.01 nM
EC50 (GIP receptor; Table 16, Example 24, read-out: EC50 (nM) at GIP receptor): 0.038 nM

I: H[Aib]QGTFTSDYSKYLDERAAQDFVQWLLDGGPSSGAPPPSKG-NH2 / II: H[Aib]QGTFTSDYSKYLDERAAQDFVQWLLDGGPSSGAPPPSKG-NH2 (linker I:40-II:40 via X7) [SEQ ID NO: 169]
EC50 (GLP-1 receptor; [1]): 0.002 nM
EC50 (glucagon receptor; [2]): 0.003 nM
EC50 (GIP receptor; [3]): 0.009 nM

CCCCCCCCCCCCCCCC(=O)N[C@@H](CCC(=O)NCCCC[C@H](NC(=O)[C@H](CO)NC(=O)[C@@H]1CCCN1C(=O)[C@@H]1CCCN1C(=O)[C@@H]1CCCN1C(=O)[C@H](C)NC(=O)CNC(=O)[C@H](CO)NC(=O)[C@H](CO)NC(=O)[C@@H]1CCCN1C(=O)CNC(=O)CNC(=O)[C@H](CC(=O)O)NC(=O)[C@H](CC(C)C)NC(=O)[C@H](CC(C)C)NC(=O)[C@H](Cc1c[nH]c2ccccc12)NC(=O)[C@H](CCC(N)=O)NC(=O)[C@@H](NC(=O)[C@H](Cc1ccccc1)NC(=O)[C@H](CC(=O)O)NC(=O)[C@H](CCC(N)=O)NC(=O)[C@H](C)NC(=O)[C@H](C)NC(=O)[C@H](CCCNC(=N)N)NC(=O)[C@H](CCC(=O)O)NC(=O)[C@H](CC(=O)O)NC(=O)[C@H](CC(C)C)NC(=O)[C@H](Cc1ccc(O)cc1)NC(=O)[C@H](CCCCN)NC(=O)[C@H](CO)NC(=O)[C@H](CCCCNC(=O)CC[C@H](NC(=O)CCCCCCCCCCCCCCC)C(=O)O)NC(=O)[C@H](CC(=O)O)NC(=O)[C@H](CO)NC(=O)[C@@H](NC(=O)[C@H](Cc1ccccc1)NC(=O)[C@@H](NC(=O)CNC(=O)[C@H](CCC(N)=O)NC(=O)C(C)(C)NC(=O)[C@@H](N)Cc1c[nH]cn1)[C@@H](C)O)[C@@H](C)O)C(C)C)C(N)=O)C(=O)O [SEQ ID NO: 163]
EC50 (GLP-1 receptor; read-out: GLP-1 Receptor (EC50), Table 13, Example 20): 0.003 nM
EC50 (glucagon receptor; read-out: Glucagon Receptor (EC50), Table 13, Example 20): 0.006 nM
EC50 (GIP receptor; Table 13, Example 20, read-out: GIP Receptor (EC50)): 0.051 nM
EC50 (GIP receptor; read-out: EC50 (cAMP, nmole) GIPR, Table 12, Example 19): 0.024 nM

I: H[Aib]QGTFTSDYSKYLDERAAQDFVQWLLDGGPSSGAPPPSKG-NH2 / II: H[Aib]QGTFTSDYSKYLDERAAQDFVQWLLDGGPSSGAPPPSKG-NH2 (linker I:40-II:40 via X2) [SEQ ID NO: 168]
EC50 (GLP-1 receptor; [1]): 0.002 nM
EC50 (glucagon receptor; [2]): 0.004 nM
EC50 (GIP receptor; [3]): 0.004 nM

From patent US9587005B2 (priority 2010, dated 2017)
